{"source": "PubChem BioAssay AID1508623", "about": "(National Center for Advancing Translational Sciences (NCATS), 2021)", "note": "Screen size: about 48,000 compounds; about 450 (0.94%) were called active. Not shown: some 19% with an inconclusive outcome. The call rests on the fitted dose curve; in most records, active means well fitted inhibition curve with a large enough effect; inconclusive means small, poorly fitted or top-dose-only effect; inactive means no such curve, though single readings can be large or run the other way. The list shows a part of the results."}
{"experiment": "Primary qHTS for Identification of Small Molecule Inhibitors of Huntingtin Promoter Activity; further: nearly all actives have a fitted effect of over 50% in size", "conditions": "HEK293 HTT promoter firefly luciferase reporter (activity 0% = vehicle and -100% = no light), 24 h; series mostly up to 57.5 µM; activity change, negative = inhibition: at the top concentration", "how_it_was_run": "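Luminescence was read after Dual-Glo reagent and a 10 min room-temperature incubation. Values were normalized to vehicle (0% activity) and zero RLU (-100% activity). Reporter HEK293 cells had been exposed to compounds (up to 57.5 uM final) for 24 h.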"}
{"molecule": "Oc1c(C(c2ccc(Cl)cc2Cl)N2CCN(c3ccccc3)CC2)sc2nc(-c3ccco3)nn12", "note": "(stereo not given)", "activity change, negative = inhibition": "inactive: -12.5%"}
{"molecule": "CSc1ncc(C(=O)NCc2cccc(F)c2)c(-c2ccccc2)n1", "activity change, negative = inhibition": "inactive: -5.99%"}
{"molecule": "O=c1c2oc3ccccc3c2n(Cc2ccccc2Cl)c(=O)n1Cc1ccco1", "activity change, negative = inhibition": "inactive: -9.44%"}
{"molecule": "COc1ccc(CN(Cc2ccco2)c2cnc(S(C)(=O)=O)nc2C(=O)Nc2ccc(C)c(Cl)c2)cc1", "activity change, negative = inhibition": "inactive: -27.6%"}
{"molecule": "Cc1ccc(NC(=O)c2cnn3c(C(F)F)cc(-c4ccccc4)nc23)cc1F", "activity change, negative = inhibition": "inactive: -2.33%"}
{"molecule": "CC(C)Oc1ccc(C(=O)N2CCN(CCc3ccccn3)CC2)cc1", "activity change, negative = inhibition": "inactive: -16.2%"}
{"molecule": "CC1CCc2nn(CC(=O)Nc3ccccc3Cl)cc2C1", "note": "(stereo not given)", "activity change, negative = inhibition": "inactive: 3.19%"}
{"molecule": "CCOc1ccc(NC(=O)NCCc2c(C)nn(C)c2C)cc1", "activity change, negative = inhibition": "inactive: 10.8%"}
{"molecule": "Cc1c(C2=CCN(S(=O)(=O)c3cccc(Cl)c3)CC2)c2ccccc2n1CC(=O)N1CCCC1", "activity change, negative = inhibition": "inactive: -41.7%"}
{"molecule": "Cc1ccc(NC(=O)C(C)Sc2nc(=O)cc(N)n2-c2cccc(C)c2)cc1", "note": "(stereo not given)", "activity change, negative = inhibition": "inactive: -25%"}
{"molecule": "COc1cccc(S(=O)(=O)N2CCN(Cc3ccc4c(c3)OCO4)CC2)c1", "activity change, negative = inhibition": "inactive: -21.5%"}
{"molecule": "CCc1ccc(-c2nc3c(c(SCc4ccccc4F)n2)Cc2c(CO)cnc(C)c2O3)cc1", "activity change, negative = inhibition": "inactive: -6.07%"}
{"molecule": "Cc1cccc(N2CCN(S(=O)(=O)c3ccc(-c4cc(C(F)(F)F)on4)s3)CC2)c1C", "activity change, negative = inhibition": "inactive: -2.55%"}
{"molecule": "Cc1ccccc1OCC(=O)Nc1ccc2nc(SCC(=O)N3CCc4ccccc43)sc2c1", "activity change, negative = inhibition": "inactive: -15.9%"}
{"molecule": "O=C(C1CCCN(S(=O)(=O)c2ccc(Br)s2)C1)N1CCN(c2cccc(Cl)c2)CC1", "note": "(stereo not given)", "activity change, negative = inhibition": "inactive: -23.1%"}
{"molecule": "COc1cccc(C2C(C(=O)Nc3ccc(Cl)cc3)=C(C)Nc3nc4ccccc4n32)c1", "note": "(stereo not given)", "activity change, negative = inhibition": "inactive: -14.5%"}
{"molecule": "OCc1cc(C(O)CNCCCCCCOCCCCc2ccccc2)ccc1O", "note": "(stereo not given)", "activity change, negative = inhibition": "inactive: -8.17%"}
{"molecule": "CCC(C)Sc1oc(-c2ccco2)nc1S(=O)(=O)c1ccc(C)cc1", "note": "(stereo not given)", "activity change, negative = inhibition": "inactive: -30.5%"}
{"molecule": "Cc1ccc(CNc2ncnc3c2cnn3-c2ccc(Cl)cc2)cc1", "activity change, negative = inhibition": "inactive: 5.2%"}
{"molecule": "COc1ccccc1C1Nc2c(sc3nc(C)cc(C)c23)C(=O)N1c1ccccc1", "note": "(stereo not given)", "activity change, negative = inhibition": "inactive: 37.4%"}
{"molecule": "COc1ccc2c(c1)c1c(c(=O)n(-c3ccc(C)cc3)c(=O)n1CC(=O)NCc1ccc(C)cc1)n2C", "activity change, negative = inhibition": "inactive: -3.36%"}
{"molecule": "COc1ccc(OCC(=O)Nc2cc(-c3nc4ccccc4s3)ccc2C)cc1", "activity change, negative = inhibition": "inactive: 67.3%"}
{"molecule": "CC(=O)OCC(=O)[C@@]12N=C(C)O[C@@H]1C[C@H]1[C@@H]3CCC4=CC(=O)C=C[C@]4(C)[C@H]3[C@@H](O)C[C@@]12C", "activity change, negative = inhibition": "inactive: -1.6%"}
{"molecule": "Cc1cc2c(cc1C)NC(CC(=O)Nc1cccc(Cl)c1)C(=O)N2", "note": "(stereo not given)", "activity change, negative = inhibition": "inactive: -20%"}
{"molecule": "O=C(O)Cc1sc(-c2ccccc2)nc1-c1ccc(Cl)cc1", "activity change, negative = inhibition": "inactive: 3.1%"}
{"molecule": "C=CCc1cccc2cc(C(=O)NCCc3c(C)[nH]c4c(C)cccc34)c(=O)oc12", "activity change, negative = inhibition": "inactive: -2.34%"}
{"molecule": "CCN(CC)c1ccc(NC(=O)CCc2nc3cccnc3n2Cc2cccs2)c(C)c1", "activity change, negative = inhibition": "inactive: -16.7%"}
{"molecule": "O=C(NCC(c1ccc2c(c1)OCO2)N1CCOCC1)C(=O)Nc1ccccc1", "note": "(stereo not given)", "activity change, negative = inhibition": "inactive: -11.4%"}
{"molecule": "CNc1ccc(-c2nc(-c3ccco3)no2)cc1[N+](=O)[O-]", "activity change, negative = inhibition": "inactive: 64.4%"}
{"molecule": "Cc1ccccc1NC(=O)c1ccc2c(O)c(S(=O)(=O)c3ccccc3)c(=O)[nH]c2c1", "activity change, negative = inhibition": "inactive: 8.76%"}
{"molecule": "CCOC(=O)N1CCC(NC(=O)c2cnn(-c3ccc(F)cc3F)c2C2CCN(C(=O)OC(C)(C)C)CC2)CC1", "activity change, negative = inhibition": "inactive: -4.22%"}
{"molecule": "COc1ccc(CCNC(=O)c2c(C)oc3ncnc(N4CCOCC4)c23)c(OC)c1", "activity change, negative = inhibition": "inactive: -4.04%"}
{"molecule": "Cc1ccc(S(=O)(=O)Nc2cc3c(cc2C)n(C)c(=O)c(=O)n3C)c(C)c1", "activity change, negative = inhibition": "inactive: -19.3%"}
{"molecule": "Cc1cc(C)cc(Nc2cc(C(=O)NC3CCC(C)CC3)c3ccccc3n2)c1", "note": "(stereo not given)", "activity change, negative = inhibition": "inactive: 5.49%"}
{"molecule": "CCCN1C(C(=O)c2ccccc2)=C(OC(=O)c2ccc(OC)cc2)c2ccccc2S1(=O)=O", "activity change, negative = inhibition": "inactive: -6.91%"}
{"molecule": "Cn1nnnc1SCCCNCc1ccc(-c2ccc(F)c(Cl)c2)o1", "activity change, negative = inhibition": "inactive: -14.1%"}
{"molecule": "CN(Cc1ccc(F)cc1)S(=O)(=O)c1nnc(NC(=O)c2ccccc2Cl)s1", "activity change, negative = inhibition": "inactive: -5.02%"}
{"molecule": "O=C(Cn1c(=O)c(C(F)(F)F)nc2ccccc21)Nc1cccc(Br)c1", "activity change, negative = inhibition": "inactive: 8.09%"}
{"molecule": "CCc1ccc(NC(=O)CN2C(=O)CCSc3ccccc32)cc1", "activity change, negative = inhibition": "inactive: -20.4%"}
{"molecule": "Cc1ccc(CNC(=O)C2CCCN(S(=O)(=O)c3cn(C)cn3)C2)cc1", "note": "(stereo not given)", "activity change, negative = inhibition": "inactive: -21.1%"}
{"molecule": "O=C(NCCc1ccccc1)c1ccc(CS(=O)(=O)Cc2ccccc2Cl)o1", "activity change, negative = inhibition": "inactive: -18.7%"}
{"molecule": "Cc1cc(=O)n(CC(=O)NCc2ccc(OC(C)C)cc2)c2c1c(C)nn2-c1cccc(F)c1", "activity change, negative = inhibition": "inactive: -16.9%"}
{"molecule": "Cc1ccc(NC(=O)C(C)Sc2nc(-c3ccccc3)c(C#N)c(=O)[nH]2)c(C)c1", "note": "(stereo not given)", "activity change, negative = inhibition": "inactive: -8.87%"}
{"molecule": "O=C(Nc1nnc(S(=O)(=O)N2CCOCC2)s1)c1ccccc1F", "activity change, negative = inhibition": "inactive: 23.7%"}
{"molecule": "O=c1c(N2CCc3ccccc3C2)csc2ccc(Cl)cc12", "activity change, negative = inhibition": "inactive: 14.1%"}
{"molecule": "CC(C)Cc1nn2c(=O)cc(COC(=O)c3ccc(NC(=O)CCc4ccccc4)cc3)nc2s1", "activity change, negative = inhibition": "inactive: -0.103%"}
{"molecule": "COc1ccc(Nc2c(-c3ccc(N4CCOCC4)cc3)nc3ncccn23)cc1OC", "activity change, negative = inhibition": "inactive: -1.6%"}
{"molecule": "CC(C)c1cnc2c(c1SCC(=O)N1CCCCC1)c(=O)n(C)c(=O)n2C", "activity change, negative = inhibition": "inactive: -10%"}
{"molecule": "COc1ccc(/C=C/C(=O)Nc2sc(C)c(C)c2C(=O)O)cc1", "activity change, negative = inhibition": "inactive: -1.21%"}
{"molecule": "CCc1ccc2c(c1)NC(c1ccc(C)cc1)=NC(c1cccs1)=N2", "activity change, negative = inhibition": "inactive: 11.4%"}
{"molecule": "CCOC(=O)N1CCc2c(sc3c2c(=O)n(Cc2ccccc2)c(=O)n3CC(=O)Nc2ccc(C)cc2C)C1", "activity change, negative = inhibition": "inactive: -9.14%"}
{"molecule": "CCc1ccccc1N(C)C(=O)c1cn(-c2cccc(OC)c2)c(=O)c2ccccc12", "activity change, negative = inhibition": "inactive: -17.8%"}
{"molecule": "Cc1nc2n(c(=O)c1CCN1CCC(c3noc4cc(F)ccc34)CC1)CCCC2", "activity change, negative = inhibition": "inactive"}
{"molecule": "O=C(Nc1ccc(F)cc1F)C1CCN(S(=O)(=O)c2ccc3[nH]c(=O)ccc3c2)CC1", "activity change, negative = inhibition": "inactive: -10.8%"}
{"molecule": "CCc1ccc(NC(=O)Cn2nnc(C(=O)NCc3ccc(C)cc3)c2N)cc1", "activity change, negative = inhibition": "inactive: -2.05%"}
{"molecule": "CCc1ccc(OCc2nc(-c3ccc(OC)c(OC)c3)no2)c(Br)c1", "activity change, negative = inhibition": "inactive: -21.3%"}
{"molecule": "CC(=O)c1ccc(N2C(=O)N(Cc3ccccc3C#N)c3ccccc3S2(=O)=O)cc1", "activity change, negative = inhibition": "inactive: -20.7%"}
{"molecule": "CCOc1ccc(C(=O)NCC(c2ccc3c(c2)OCO3)N2CCOCC2)cc1", "note": "(stereo not given)", "activity change, negative = inhibition": "inactive: -15.3%"}
{"molecule": "Cc1c(C(=O)Nc2ccc(F)c(Cl)c2)oc2ccc(S(=O)(=O)N(C)C3CCCCC3)cc12", "activity change, negative = inhibition": "inactive: -12%"}
{"molecule": "Cc1ccc(-n2ncc(C(=O)Nc3ccc4c(c3)OCO4)c2C2CCN(C(=O)OC(C)(C)C)CC2)c(C)c1", "activity change, negative = inhibition": "inactive: -10.9%"}
